# Measured values from PubChem BioAssay AID588342 (National Center for Advancing Translational Sciences (NCATS), 2011).
# The whole screen tested about 360,000 compounds, of which about 25,000 (6.9%) were called active. This list was built around the results that the source calls inconclusive (neither active nor inactive); the mix of calls is not that of the screen. Calls follow the shape of the dose curve; as a rule, active = well fitted inhibition curve with a large enough effect; inconclusive = small, poorly fitted or top-dose-only effect; inactive = flat fitted curve, though single readings scatter. Potencies of inconclusive entries are doubtful fits and often do not repeat.
# Biological target: Luciferin 4-monooxygenase (Photinus pyralis) (UniProt P08659)
# Assay: qHTS profiling assay for firefly luciferase inhibitor/activator using purifed enzyme and Km concentrations of substrates (counterscreen for miR-21 project); also: nearly all actives have a fitted effect of over 55% in size
# Conditions: purified FLuc, luminescence inhibition; series mostly up to 57.5 µM
# Method in brief: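 Purified P. pyralis luciferase, 10 nM final, with Km-level 10 uM D-luciferin and 10 uM ATP in 50 mM Tris acetate pH 7.5, 10 mM Mg acetate, 0.01% Tween-20, 0.05% BSA; 6-point qHTS titration about 60 µM downward; luminescence read.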
# Potency is read from the fitted curve at half-maximal effect; tags tell the direction and shape of the fitted curve.
# Sequence of UniProt P08659 (P08659 whole entry, looked up): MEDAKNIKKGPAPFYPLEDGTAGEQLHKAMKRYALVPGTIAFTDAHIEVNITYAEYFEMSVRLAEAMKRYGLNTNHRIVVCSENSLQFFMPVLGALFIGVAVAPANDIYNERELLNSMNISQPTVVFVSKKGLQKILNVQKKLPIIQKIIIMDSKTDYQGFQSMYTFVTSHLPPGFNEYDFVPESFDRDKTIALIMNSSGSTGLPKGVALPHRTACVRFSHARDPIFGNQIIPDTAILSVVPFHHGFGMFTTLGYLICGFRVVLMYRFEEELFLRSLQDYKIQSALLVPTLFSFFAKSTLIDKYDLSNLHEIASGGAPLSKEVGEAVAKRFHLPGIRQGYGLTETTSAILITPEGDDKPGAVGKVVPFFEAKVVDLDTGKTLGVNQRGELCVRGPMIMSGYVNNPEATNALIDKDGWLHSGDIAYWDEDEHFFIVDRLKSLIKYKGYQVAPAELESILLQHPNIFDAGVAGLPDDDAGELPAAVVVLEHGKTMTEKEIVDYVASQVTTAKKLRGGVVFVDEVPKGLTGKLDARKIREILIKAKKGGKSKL
row,SMILES,Potency
1,C=CCn1c(SCC(=O)c2cc(C)n(CCOC)c2C)nc2sc(C)c(C)c2c1=O,"inconclusive: 26.9 µM [inhibitor, partial curve, poor fit]"
2,COC(=O)COc1ccc2cc(-c3ccccc3)c(=O)oc2c1,active: 12 µM
3,COc1ccc2oc(C(=O)OCC(=O)N3CCCC(C)C3)c(C)c2c1 (stereo not drawn),"inconclusive: 21.3 µM [inhibitor, partial curve, poor fit]"
4,CCOc1ccc(Cn2c(CNS(=O)(=O)c3ccc([N+](=O)[O-])cc3)nc3cccnc32)cc1,inactive
5,Cc1[nH]c2ccccc2c1/C=C/c1nc2ccccc2c(=O)n1CCO,"inconclusive: 3.01 µM [inhibitor, full curve]"
6,C=CCc1cccc(/C=N/c2ncn[nH]2)c1O,"inconclusive: 37.9 µM [inhibitor, partial curve, poor fit]"
7,O=C(Nc1nc2c(s1)CCCC2)c1cc(-c2ccccc2)nc2ccccc12,"inconclusive: 19 µM [inhibitor, partial curve]"
8,CCOC(=O)c1c(C)[nH]c2cc(Br)c(OC)cc12,"inconclusive: 2.69 µM [inhibitor, partial curve, poor fit]"
9,CCOc1ccc(NC(=O)c2ccc(-c3cccc(Cl)c3C)o2)cc1,inactive
10,O=C(O)c1cc(O)ccc1NC(=O)c1cccc2ccccc12,"inconclusive: 30.1 µM [inhibitor, single point]"
11,COc1ccc2c(c1)NC(=O)CC(c1ccccc1)=N2,"inconclusive: 26.9 µM [inhibitor, single point]"
12,Cc1ccc(N2CC(c3nnc(NC(=O)c4ccco4)s3)CC2=O)cc1C (stereo not drawn),"inconclusive: 23.9 µM [inhibitor, partial curve]"
13,CC(C)CCNC(=S)Nc1ccc([N+](=O)[O-])cc1,"inconclusive: 26.9 µM [inhibitor, single point]"
14,CCOC(=O)c1oc2ccc(CNC3CCCCC3)c(Cl)c2c1C,inactive
15,NNC(=O)c1csc(-c2ncc(C(F)(F)F)cc2Cl)n1,"inconclusive: 37.9 µM [inhibitor, partial curve, poor fit]"
16,CCN(CC)c1ccc2c(C)cc(=O)oc2c1,"inconclusive: 26.9 µM [inhibitor, partial curve, poor fit]"
17,O=C(NC1CCCCCC1)C(=O)NC1CCCC1,"inconclusive: 13.5 µM [inhibitor, partial curve]"
18,Cc1n[nH]c(=S)n1/N=C/c1ccc(-c2ccccc2[N+](=O)[O-])o1,"inconclusive: 37.9 µM [inhibitor, partial curve, poor fit]"
